PMC4336329 (PLoS ONE, 2015)
About 14,000 (4.5%) of roughly 310,000 compounds showed an effect of 50% or more. The effect is printed as a negative number. This is one part of the list.

Biological target: human ether-à-go-go-related gene (hERG) potassium channel (human, UniProt Q12809)
Experiment: primary screen, population patch clamp on CHO cells stably expressing hERG
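Note: peak tail current of the secondary pulse compared with the same well before compound.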

Chain of human ether-à-go-go-related gene (hERG) potassium channel (Q12809 whole entry, looked up): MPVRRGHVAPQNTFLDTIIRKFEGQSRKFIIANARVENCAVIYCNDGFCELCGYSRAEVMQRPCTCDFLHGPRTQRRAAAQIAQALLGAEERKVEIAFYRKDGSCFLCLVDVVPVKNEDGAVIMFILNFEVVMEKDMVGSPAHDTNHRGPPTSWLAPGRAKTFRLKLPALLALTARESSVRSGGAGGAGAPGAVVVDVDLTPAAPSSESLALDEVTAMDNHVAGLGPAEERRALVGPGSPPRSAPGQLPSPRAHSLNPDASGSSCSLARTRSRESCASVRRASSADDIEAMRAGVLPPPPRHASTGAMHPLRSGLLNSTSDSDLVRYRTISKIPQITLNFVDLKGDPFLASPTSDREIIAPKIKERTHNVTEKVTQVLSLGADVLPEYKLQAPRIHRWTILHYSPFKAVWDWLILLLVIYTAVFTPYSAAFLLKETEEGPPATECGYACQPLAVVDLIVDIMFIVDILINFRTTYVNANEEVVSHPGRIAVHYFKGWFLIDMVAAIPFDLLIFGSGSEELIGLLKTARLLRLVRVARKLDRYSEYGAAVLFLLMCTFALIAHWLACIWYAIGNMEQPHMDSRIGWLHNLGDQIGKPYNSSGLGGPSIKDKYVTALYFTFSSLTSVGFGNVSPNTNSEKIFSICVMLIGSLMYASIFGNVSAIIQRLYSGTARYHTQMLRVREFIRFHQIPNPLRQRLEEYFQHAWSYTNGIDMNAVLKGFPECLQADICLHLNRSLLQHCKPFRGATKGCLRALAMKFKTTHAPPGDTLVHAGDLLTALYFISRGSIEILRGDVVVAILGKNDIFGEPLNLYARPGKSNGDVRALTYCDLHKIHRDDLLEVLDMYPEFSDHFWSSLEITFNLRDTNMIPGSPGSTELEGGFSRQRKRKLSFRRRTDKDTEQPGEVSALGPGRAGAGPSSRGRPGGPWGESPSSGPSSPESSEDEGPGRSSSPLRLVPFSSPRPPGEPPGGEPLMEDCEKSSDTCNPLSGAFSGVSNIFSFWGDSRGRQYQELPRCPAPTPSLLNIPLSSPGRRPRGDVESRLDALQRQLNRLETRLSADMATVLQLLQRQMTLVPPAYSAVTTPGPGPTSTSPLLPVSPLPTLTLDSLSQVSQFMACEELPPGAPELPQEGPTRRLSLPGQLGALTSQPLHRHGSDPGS

Compound | hERG current change (%, negative = inhibition) at 10uM [%]
O=C(O)c1ccccc1N=Nc1c(O)[nH]c2ccc([N+](=O)[O-])cc12 | 6.84
COc1cc(NS(=O)(=O)c2ccc(NC(=O)c3cccs3)cc2)nc(OC)n1 | 10.3
COc1ccc(Br)cc1-c1nc2c(c(=O)[nH]c(=O)n2Cc2ccccc2)n1C | 5.42
Cc1ccc(OCCN2CCN(C)CC2)c([N+](=O)[O-])c1.O=C(O)C(=O)O | 6
Cn1cc(S(=O)(=O)NC2CCCCC2)c(=O)n(C)c1=O | -10.1
COc1ccc(C2NCc3ccc4c(c3-n3cccc32)OCO4)cc1O.Cl (stereo not drawn) | -6.08
O=C(Nc1ccc2nc(-c3cccnc3)[nH]c2c1)c1ccco1 | 5.88
NC(=O)c1c(NC(=O)CSc2nnc(Cc3ccccc3)n2Cc2ccco2)sc2c1CCC2 | -12.6
OC(COc1ccc2cc(Br)ccc2c1)CN1CCOCC1 (stereo not drawn) | -48.4
CCOC(=O)N1CCN(C(=O)CSc2ccc(-c3cccc(OC)c3)nn2)CC1 | -28.5
CCOc1ccc(S(=O)(=O)N(CC)CC)cc1NC(=O)CSCc1c(C)noc1C | -67.2
c1ccc2sc(NC3=NCN(CCN4CCOCC4)CN3)nc2c1 | 6.61
Cc1ccc2nc(NCCO)nc(-c3ccccc3)c2c1 | -16.6
O=C(Nc1ccc2c(c1)C(=O)NC2=O)c1ccccc1Cl | -0.898
CSc1nc2ccccc2n1CC(=O)Nc1ccc(C)c(C)c1 | 15
CC[C@@H]1[C@H]2CCCC(=O)N3CC[C@@H](C[C@H]1O)[C@@H]23 | 16.7
Cc1nnc2n(c1=O)N=C(c1ccc(Cl)cc1)CS2 | 6.25
Cn1c(CNC(=O)c2ccccc2F)nnc1SCc1ccc(F)cc1 | -15.3
CC(=O)c1nn(-c2cccc(Br)c2)cc1C(=O)c1ccccc1 | 23.3
CCN(CC(=O)NC1CCS(=O)(=O)C1)c1ccc([N+](=O)[O-])cc1C#N (stereo not drawn) | -1.69
Cc1ccnc2nc(C(=O)Nc3ccc(S(=O)(=O)N4CCCC4)cc3)nn12 | 11.5
C/C(=N\Nc1ccc([N+](=O)[O-])cc1[N+](=O)[O-])C(C)C(C)C (stereo not drawn) | -11.8

Compound | hERG current change (%, negative = inhibition) at 10uM [%]
Cc1cccc(CN2CCN(Cc3cnn(-c4ccccc4F)c3)CC2CCO)n1 (stereo not drawn) | -11.3
O=C(Nc1ccc([N+](=O)[O-])cc1)Nn1cnnc1 | 15.2
COc1nccnc1NS(=O)(=O)c1ccc(NCc2ccccc2O)cc1 | 7.4
O=C(Nc1ccc(N2CCOCC2)cc1)c1cc2c(s1)CCCCC2 | 8.76
C[C@@]12C(=O)N(CCO)CC(=O)N1[C@H](/C=C/c1ccccc1)[C@@H]1C(=O)N(c3ccccc3)C(=O)[C@@H]12 | -6.44
O=C(c1ccc(Cl)s1)N1CCN(c2nc3ccccc3s2)CC1 | -9.88
Cc1c(C#N)c(O)[nH]c(=O)c1N=Nc1ccc(Cl)c(C(=O)O)c1 | 16.2
CCCCn1c(N)c(N(CC(C)C)C(=O)c2ccncc2)c(=O)[nH]c1=O | 16.5
Cc1noc(C)c1S(=O)(=O)Nc1ccc(C(=O)NC2CCCCCC2)cc1 | 3.27
CC(=O)Nc1nc(C)c(C(C)=O)s1 | 19.7
O=S(=O)(c1ccc(N2CCCC2c2nc3ccccc3s2)nc1)N1CCOCC1 (stereo not drawn) | -26.5
O=c1[nH]c2ccc(NC(=S)NCc3ccccc3)cc2[nH]1 | 14.4
CCOCCCNC(=O)c1ccc(OC)c(OC2CCN(C(C)C)CC2)c1 | 10.7
Cn1c(-c2cccc(OCc3ccccc3)c2)nc2c1c(=O)[nH]c(=O)n2Cc1ccccc1 | 4.94
N#CCC(=O)Nc1ccc(C(=O)NCC2(N3CCOCC3)CCCCC2)cc1 | 7.48
Cc1cc(NC(=O)COC(=O)c2c(C)nn(Cc3ccccc3Cl)c2C)no1 | 1.07
CCCOC(=O)c1sc2nc3c(cc2c1N)C(=O)CCC3 | 10.6
CN1C(=O)N(C)C2(C)CC1(C)N(C)C(=O)N2C | 25.7
O=C(NCc1cccnc1)c1cccc2c1C(=O)N(C1CCCCC1)C2 | -15.3
C/C(=N\N=C(/N)c1nonc1N)c1ccc2c(c1)OCO2 | 18.8
COC(=O)C1=NNCC12CC(=O)N(c1ccc(Br)cc1)C2=O (stereo not drawn) | 0.162
CC(C)(CO)NCc1c(OCc2ccc(Cl)cc2)ccc2ccccc12.Cl | -75.6

Compound | hERG current change (%, negative = inhibition) at 10uM [%]
CCCN1CCN(C(=O)c2nn(-c3ccc(OC)cc3)c(=O)c3c2c2ccccc2n3C)CC1 | -3.71
Cc1ccn2c(C(=O)N/N=C/c3ccc(CNC(=O)C(=O)Nc4ccc(C)c(C)c4)o3)c(C)nc2c1 | -57
Cl.N=c1sccn1CC(=O)Nc1cccc(S(N)(=O)=O)c1 | 12.5
COc1cccc(C(=O)NCCS(=O)(=O)NCCCc2ccccc2)c1 | -30.2
CC(C)C1C(=O)CC(c2ccccc2)NC1c1ccccc1 (stereo not drawn) | 14.8
Clc1ccc2nc(-c3ccc(Br)s3)cn2c1 | 8.14
Cn1c2ccccc2c2ncn(Cc3ccco3)c(=O)c21 | 0.125
Cc1ccc(CSc2nsc(C)c2C#N)cc1 | 19.9
O=C(CCCNC(=O)/C(=C/c1ccc(Br)cc1)NC(=O)c1ccccc1)OCc1ccccc1 | -38.8
COc1ccc(CCN(Cc2cc3cc(C)c(C)cc3nc2Cl)C(=O)C2CC2)cc1 | 19.8
Cc1cc(C)cc(C(=O)NC(CC(N)=O)c2ccc(NC3CCCCC3)c([N+](=O)[O-])c2)c1 (stereo not drawn) | 1.32
CCC1(CC)C(=O)NC(=NCCc2c[nH]c3ccccc23)NC1=O | 11.7
COC(=O)N/N=C/c1c(C)nn(-c2cccc(Cl)c2)c1Cl | 0.835
O=C(Cn1ccn(-c2ccc(F)c(Cl)c2)c(=O)c1=O)NCCc1ccccc1 | -8.97
CCCOC1CCCN(Cc2nc(-c3cnccn3)no2)C1 (stereo not drawn) | 11.8
N#Cc1ccccc1S(=O)(=O)N1CCN(CC(=O)NC(=O)NC2CCCCC2)CC1 | -31.6
O=C(NCCCCNC(=O)c1ccco1)c1ccco1 | 7.45
CCOc1ccc(N2C(=O)CC(N(CCc3ccccc3)C(=O)/C=C/C(=O)O)C2=O)cc1 (stereo not drawn) | 8.98
Cc1ccc(C(=O)NNC2=NCCC2)cc1 | -8.69
CCc1ccc(N/C(N)=N/c2nc(CSc3ccccn3)cc(=O)[nH]2)cc1 | 3.29
O=C(COc1ccc2ccc(=O)oc2c1)Nc1ccc(CCO)cc1 | 4.43
CN(C)C1(CNC(=O)c2cc(S(=O)(=O)N3CCOCC3)c(Cl)cc2Cl)CCCCC1 | -41.5

Compound | hERG current change (%, negative = inhibition) at 10uM [%]
Cc1ccc(/C=C/C(=O)c2cc(Br)ccc2OC(=O)c2ccco2)cc1 | 15.4
Cc1onc(-c2c(F)cccc2Cl)c1C(=O)Nc1nc2c(s1)CCCC2 | -29.5
COCc1nnc(SCC(=O)Nc2cccc(Cl)c2C)n1-c1ccccc1 | -48.6
COc1ccc(-c2nc(CN3CCC(C(=O)NCC4CCCO4)CC3)c(C)o2)cc1OC (stereo not drawn) | -20.9
COc1cc(C)nc(NC(=S)N(C)C(=O)c2ccccc2)n1 | 18.6
CNS(=O)(=O)c1ccc(C)cc1 | 5.12
COc1ccc(-c2cc(=O)c3c(O)cc(OC4OC(COC5OC(C)C(O)C(O)C5O)C(O)C(O)C4O)cc3o2)cc1O (stereo not drawn) | 9.14
O=C(NCCS(=O)(=O)N1CCN(c2ccccc2)CC1)c1cccs1 | -7.47
O=C(CN1CCC(O)(c2ccc3c(c2)OCO3)CC1)N1CCOCC1 | 14.1
O=C1C(=O)N(CCCn2ccnc2)C(c2ccc(Br)cc2)/C1=C(\O)c1ccc2c(c1)OCCO2 (stereo not drawn) | 15.8
CC(C)N(Cc1ccc(F)cc1)C(=O)c1cc2ccccc2oc1=O | 19.5
COc1cc(OC)c(OC)cc1/C=N/NC(=O)CCc1c(C)n[nH]c1C | 19
COc1ccc(-c2nnc(Nc3nc4c(OC)cccc4s3)o2)c(OC)c1 | 18.8
COC(=O)C1=C(C)NC(=O)/C1=C\c1cc(C)n(-c2ccccc2C)c1C | 7.07
O=C(NCc1ccccn1)c1ccc(OC2CCN(Cc3ccc(Cl)s3)CC2)cc1 | -33
COc1ccc(Cl)cc1CN1CCN(c2nc(C)cc(C)c2C#N)CC1 | -7.74
CCCC(=O)NC(=S)Nc1ccccc1N1CCOCC1 | -3.07
COc1ccccc1C(=O)N/C(=C\c1cn(S(=O)(=O)N(C)C)c2ccccc12)C(=O)NCCN1CCOCC1 | -2.62
Oc1ccc(-c2csc(-c3cccnc3)n2)cc1O | 2.09
CCOC(=O)N1CCN(S(=O)(=O)c2cccc3cccnc23)CC1 | -9.63
O=C(NCCOc1ccccc1)C1CCC(=O)N(CCc2ccccn2)C1 (stereo not drawn) | -11.9
